About 1,200 (2.5%) of roughly 48,000 compounds were called active. Not shown: some 2% with an inconclusive outcome.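 How the source made its calls: active means activation of at least 60% and not above a set upper limit (about 1 call in 100 departs from these limits); inconclusive means activation of 40% to 60%, or above that upper limit; inactive means activation under 40%.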 Some of the results follow.
These compounds were tested against Probable G-protein coupled receptor 32 (Homo sapiens) (UniProt O75388) (assay: qHTS for Agonists of Human Resolvin D1 Receptor DRV1). Settings: CHO-K1 GPR32 beta-arrestin PathHunter luminescence, 90 min; at 76.9 µM; hits give high values; zero percent set by DMSO-only wells.
Procedure, shortened: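 Luminescent readout of beta-Gal complementation quantifies ligand-induced beta-arrestin association with GPR32 in CHO-K1 cells; 90 min compound incubation at 37 °C, detection 1 h at room temperature.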
Further: 0% is about no effect.

Sequence of UniProt O75388 (O75388 whole entry, looked up): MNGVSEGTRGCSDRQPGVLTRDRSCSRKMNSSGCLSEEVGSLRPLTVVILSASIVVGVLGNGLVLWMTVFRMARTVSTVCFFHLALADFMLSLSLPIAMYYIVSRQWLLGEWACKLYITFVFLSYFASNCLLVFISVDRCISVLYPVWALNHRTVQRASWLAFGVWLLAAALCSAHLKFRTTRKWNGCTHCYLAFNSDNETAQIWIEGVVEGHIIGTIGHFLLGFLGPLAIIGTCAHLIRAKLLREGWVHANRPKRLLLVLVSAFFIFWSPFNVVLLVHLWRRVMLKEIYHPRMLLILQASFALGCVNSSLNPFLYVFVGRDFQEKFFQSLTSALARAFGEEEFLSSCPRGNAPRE

activation, inactive:
Fc1ccc(-n2cc(-c3ccccc3)c3c(NC4CCCCC4)ncnc32)cc1 -32.4%, CCc1nn(CC(=O)NCCCN(CC)CC)c(=O)c2cc3sc(C)cc3n12 -25.4%, CSc1ncc(C(=O)Nc2ccccc2C(=O)c2ccccc2)c(C(F)(F)F)n1 -26.4%, Cc1cc(C)c(NC(=O)CSc2ccnc(=O)[nH]2)c(C)c1 37.4%, COc1cc(NC(=O)CCn2c(-c3ccccc3)cc(C(C)=O)c2C)cc(OC)c1 -31.5%, Cc1cccc(CNC(=O)c2oc3c(c2C)-c2nn(Cc4ccccc4Cl)cc2CC3)c1 -22.7%, Cc1c(Cl)cccc1NC(=O)CSc1ncnc2c1sc1ccccc12 -7.52%, CCc1ccc(C2CC(=O)c3c([nH]c(C(=O)OCC4CCCCC4)c3C)C2)cc1 (centres undefined) -9.72%, NS(=O)(=O)c1ccc(CCNC(=O)C2COc3ccccc3C2)cc1 (centres undefined) -12.7%, Cc1cc(OCC(=O)Nc2ccc(-c3nc4cc(Cl)ccc4o3)cc2)cc(C)c1Cl -6.59%, Cc1ccc(Cn2c(=O)c3cccnc3n(CC(=O)Nc3cccc(C(F)(F)F)c3)c2=O)cc1 -8.49%, O=C(COc1ccccc1)NCc1ccc2c(c1)CCN2C(=O)c1ccc(F)cc1 -31.7%, CCc1cccc(NC(=O)Nc2ccc3c(c2)N(C)C(=O)c2ccccc2S3)c1 4.77%, CCOc1ccc(NC(=O)C(=O)NCCc2csc(-c3ccc(F)cc3)n2)cc1 -3.94%, Cn1cc(S(=O)(=O)N2CCCCCC2)cc1C(=O)N1CCN(c2ccc(F)cc2)CC1 26.2%, CCC(=O)N1CCc2cc(Br)cc(S(=O)(=O)CCC(=O)NCCc3ccc(OC)c(OC)c3)c21 -10.3%, CCOc1ccc(/C=C/c2nc(C#N)c(N3CCN(c4ccc(OC)cc4)CC3)o2)cc1 -13.9%, COc1ccc(NS(=O)(=O)c2cc3[nH]c(=O)c(=O)[nH]c3cc2C)cc1Cl -2.57%, Oc1ccc(Cn2cc[nH]c2=S)cc1 12.2%, CC(C)OCCCn1c(SCc2ccccc2C#N)nc2c(sc3ccccc32)c1=O 49.4%, Cc1ccc(NC(=O)Cc2c(C(=O)O)c(C)cn2C)cc1Cl -2.15%, COc1cc(OC)c(NC(=O)CN2C(=O)CCn3nc(-c4cccn4C)cc32)cc1Cl 22%, CCN(CC)CCOc1ccc2c(c1)C(=O)c1cc(OCCN(CC)CC)ccc1-2 25.1%, CN(C(=O)C1CCCN(c2ncnc3c2nc2n3CCCCC2)C1)c1ccccc1F (centres undefined) 15.7%, CCN(CC)CC(C)CNC(=O)CN1C(=O)CSc2ccc(S(=O)(=O)N3CCOCC3)cc21 (centres undefined) -10.8%, Cc1cc(F)ccc1NC(=O)CCS(=O)(=O)c1ccc2c(c1)NC(=O)CO2 11.6%, O=C(Nc1ccc(Cl)cc1)C1CCCN(S(=O)(=O)c2ccc3[nH]c(=O)ccc3c2)C1 (centres undefined) 11.4%, Cc1ccc(Oc2c(C(F)(F)F)oc3c(CN4CCCCC4)c(O)ccc3c2=O)cc1 -34.2%, CCOc1cccc2cc(-c3nc(-c4ccccc4C)no3)c(=O)oc12 -8.82%, CCOC(=O)c1ccccc1NC(=O)CSc1cn(CC(=O)N2CCCCC2)c2ccccc12 -20.5%, COc1cccc(CNC(=O)C2CCCN(S(=O)(=O)c3ccc4c(ccn4C)c3)C2)c1 (centres undefined) -11.5%, Cc1nc2c(-c3ccccc3)c(C)nn2c(C)c1CCC(=O)NC(C)c1ccccc1 (centres undefined) 11.5%, CCc1ccccc1NS(=O)(=O)c1ccc2[nH]cc(C(=O)N3CCCCC3)c(=O)c2c1 13.1%, COc1cc(CN(C(=O)Nc2ccccc2)c2ccccn2)cc(OC)c1OC 4.53%, COc1ccc(NC(=O)CC2C(=O)N(c3ccc(F)cc3)C(=O)N2Cc2cccnc2)cc1 (centres undefined) -1.92%, Nc1ccn([C@@H]2O[C@H](CO)[C@@H](O)C2O)c(=O)n1 (some centres undefined) 13.1%, CCCN(C(=O)c1cc2c(s1)-c1ccccc1OC2)c1ccccc1F 36.7%, CCOC(=O)c1cccc(NC(=O)c2oc3c(c2C)-c2[nH]ncc2CC3)c1 -12.2%, CCC(C(=O)Nc1ccc(C(=O)OC)cc1)n1c(=O)c(-c2ccccc2NC(C)=O)nc2ccccc21 (centres undefined) -40.6%, Cc1ccc(NC(=O)c2cc(S(=O)(=O)NCCC3=CCCCC3)ccc2F)cc1F 0.576%, COc1ccc(Cl)cc1NC(=O)c1ccc2nc(Cc3ccccc3)oc2c1 -15.6%, CC(C)CCNC(=O)c1cccc(Nc2nc3ccccc3n3nnnc23)c1 -13.1%, CCCC(=O)Nc1cc(C)c(O)c(-c2nc3ncccc3o2)c1 -12.4%, Cc1ccc(-n2nc(C(=O)N3CCN(c4cc(Cl)ccc4C)CC3)c(=O)n(C)c2=O)cc1 4.62%, Cc1cc(NC(=O)c2ccc(Br)o2)cc(-c2nc3ccccc3o2)c1O -1.08%, CCc1ccc(C(=O)c2cn(CC(=O)Nc3ccc(F)c(F)c3)c3cc(OC)c(OC)cc3c2=O)cc1 13.4%, CCCCNC(=O)C1CCCN(Cc2nc(-c3ccc(Cl)cc3)oc2C)C1 (centres undefined) 0.238%, O=C(c1ccccc1Br)N(Cc1ccco1)C1CCS(=O)(=O)C1 (centres undefined) -12.9%, CCCCCC(=O)N1c2ccccc2C(C)(c2ccccc2)CC1(C)C (centres undefined) -20.3%, CCC(Sc1nc2c(sc3ccccc32)c(=O)n1CCc1ccccc1)C(=O)N(CC)CC (centres undefined) 0.503%, O=C(c1ccc2c(c1)N(Cc1ccccc1)C(=O)c1ccccc1S2(=O)=O)N1CCCC1 -18.9%, COc1cccc(CCNC(=O)Cn2c(-c3cccs3)cc3ccccc32)c1 34.8%, Cc1ccc(C)c(N2CCN(C(=O)Nc3cn(CC(C)C)c(=O)c4ccccc34)CC2)c1 -18.8%, COc1ccc(NC(=O)CN2C(=O)C(c3ccc(C(C)(C)C)cc3)=NC2(C)C)cc1Cl -12.9%

Reference: PubChem BioAssay AID1346428 (National Center for Advancing Translational Sciences (NCATS), 2018)
